Laboratory results from the supplement of paper PMC10369915.
The list shows a part of the results. No stated cut-off is given here; in the data, active = 3.2 or more and inactive = the rest. The signal is at background level for most entries.

What follows are binders tested against SHP2 C-SH2 domain E139D (assay: enrichment score (SH2-bound / input frequency) (ratio); bacterial display of known human phosphotyrosine sites (pTyr-Var adds point mutants) read by sequencing; higher = stronger binding; tyrosines were phosphorylated by kinases first). Conditions: peptide library: pTyr-Var.
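Further: displayed peptides selected on beads carrying the immobilized SH2 domain, with library peptides lacking any tyrosine serving as negative controls.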

Binder	enrichment score
FFRCHYPLTTL [TNS4_Y644_R642C]	inactive: 1.09
SVVVPYDPPEV [TP53_Y220_E221D]	inactive: 0.863
SVVVHYEPPEV [TP53_Y220_P219H]	inactive: 0.911
SVVVPYKPPEV [TP53_Y220_E221K]	inactive: 1.06
SVTCTYSPAFN [TP53_Y126_L130F]	inactive: 0.865
SVTCPYSPALN [TP53_Y126_T125P]	inactive: 0.876
SVVVPYEPPGV [TP53_Y220_E224G]	inactive: 0.727
GVVVPYEPPEV [TP53_Y220_S215G]	inactive: 0.847
SVTCTGSPALN [TP53_Y126_Y126G]	inactive: 0.766
SVTCTDSPALN [TP53_Y126_Y126D]	inactive: 1.02
SVTCTYSPALD [TP53_Y126_N131D]	inactive: 0.925
SVVVPYEPPEV [TP53_Y220]	inactive: 1.12
SVVVPYESPEV [TP53_Y220_P222S]	inactive: 0.842
SVTCTYSPDLN [TP53_Y126_A129D]	inactive: 1.36
SVTCRYSPALN [TP53_Y126_T125R]	inactive: 1.37
SVTYTYSPALN [TP53_Y126_C124Y]	inactive: 0.672
SVTCTYSPAIN [TP53_Y126_L130I]	inactive: 1.5
SVVVPYEQPEV [TP53_Y220_P222Q]	inactive: 0.738
SVVVPYEPHEV [TP53_Y220_P223H]	inactive: 0.77

These binders were tested against SHP2 C-SH2 domain wild-type in the same assay as above. Conditions: peptide library: pTyr-Var.

Binder	enrichment score
FFRCHYPLTTL [TNS4_Y644_R642C]	inactive: 1.22
SVVVPYDPPEV [TP53_Y220_E221D]	inactive: 0.797
SVVVHYEPPEV [TP53_Y220_P219H]	inactive: 0.987
SVVVPYKPPEV [TP53_Y220_E221K]	inactive: 0.837
SVTCTYSPAFN [TP53_Y126_L130F]	inactive: 1.63
SVTCPYSPALN [TP53_Y126_T125P]	inactive: 1.01
SVVVPYEPPGV [TP53_Y220_E224G]	inactive: 0.832
GVVVPYEPPEV [TP53_Y220_S215G]	inactive: 0.604
SVTCTGSPALN [TP53_Y126_Y126G]	inactive: 0.765
SVTCTDSPALN [TP53_Y126_Y126D]	inactive: 0.964
SVTCTYSPALD [TP53_Y126_N131D]	inactive: 1.42
SVVVPYEPPEV [TP53_Y220]	inactive: 0.822
SVVVPYESPEV [TP53_Y220_P222S]	inactive: 0.775
SVTCTYSPDLN [TP53_Y126_A129D]	inactive: 1.35
SVTCRYSPALN [TP53_Y126_T125R]	inactive: 1.03
SVTYTYSPALN [TP53_Y126_C124Y]	inactive: 0.979
SVTCTYSPAIN [TP53_Y126_L130I]	inactive: 1.65
SVVVPYEQPEV [TP53_Y220_P222Q]	inactive: 0.862
SVVVPYEPHEV [TP53_Y220_P223H]	inactive: 0.811

These binders were tested against SHP2 N-SH2 domain L43F in the same assay as above. Conditions: peptide library: pTyr-Var.

Binder	enrichment score
FFRCHYPLTTL [TNS4_Y644_R642C]	inactive: 0.953
SVVVPYDPPEV [TP53_Y220_E221D]	inactive: 0.886
SVVVHYEPPEV [TP53_Y220_P219H]	inactive: 0.987
SVVVPYKPPEV [TP53_Y220_E221K]	inactive: 0.871
SVTCTYSPAFN [TP53_Y126_L130F]	inactive: 1.34
SVTCPYSPALN [TP53_Y126_T125P]	inactive: 1.03
SVVVPYEPPGV [TP53_Y220_E224G]	inactive: 0.715
GVVVPYEPPEV [TP53_Y220_S215G]	inactive: 0.905
SVTCTGSPALN [TP53_Y126_Y126G]	inactive: 0.635
SVTCTDSPALN [TP53_Y126_Y126D]	inactive: 0.913
SVTCTYSPALD [TP53_Y126_N131D]	inactive: 0.995
SVVVPYEPPEV [TP53_Y220]	inactive: 0.875
SVVVPYESPEV [TP53_Y220_P222S]	inactive: 0.872
SVTCTYSPDLN [TP53_Y126_A129D]	inactive: 1.29
SVTCRYSPALN [TP53_Y126_T125R]	inactive: 0.982
SVTYTYSPALN [TP53_Y126_C124Y]	inactive: 0.847
SVTCTYSPAIN [TP53_Y126_L130I]	inactive: 1.75
SVVVPYEQPEV [TP53_Y220_P222Q]	inactive: 0.884
SVVVPYEPHEV [TP53_Y220_P223H]	inactive: 0.852

These binders were tested against SHP2 N-SH2 domain T42A in the same assay as above. Conditions: peptide library: pTyr-Var.

Binder	enrichment score
FFRCHYPLTTL [TNS4_Y644_R642C]	inactive: 1.35
SVVVPYDPPEV [TP53_Y220_E221D]	inactive: 0.824
SVVVHYEPPEV [TP53_Y220_P219H]	inactive: 1
SVVVPYKPPEV [TP53_Y220_E221K]	inactive: 0.769
SVTCTYSPAFN [TP53_Y126_L130F]	inactive: 0.861
SVTCPYSPALN [TP53_Y126_T125P]	inactive: 0.781
SVVVPYEPPGV [TP53_Y220_E224G]	inactive: 0.711
GVVVPYEPPEV [TP53_Y220_S215G]	inactive: 0.799
SVTCTGSPALN [TP53_Y126_Y126G]	inactive: 0.685
SVTCTDSPALN [TP53_Y126_Y126D]	inactive: 0.724
SVTCTYSPALD [TP53_Y126_N131D]	inactive: 1.86
SVVVPYEPPEV [TP53_Y220]	inactive: 0.874
SVVVPYESPEV [TP53_Y220_P222S]	inactive: 0.68
SVTCTYSPDLN [TP53_Y126_A129D]	inactive: 0.853
SVTCRYSPALN [TP53_Y126_T125R]	inactive: 0.657
SVTYTYSPALN [TP53_Y126_C124Y]	inactive: 0.988
SVTCTYSPAIN [TP53_Y126_L130I]	active: 4.07
SVVVPYEQPEV [TP53_Y220_P222Q]	inactive: 0.723
SVVVPYEPHEV [TP53_Y220_P223H]	inactive: 0.582

These binders were tested against SHP2 N-SH2 domain T52S in the same assay as above. Conditions: peptide library: pTyr-Var.

Binder	enrichment score
FFRCHYPLTTL [TNS4_Y644_R642C]	inactive: 1.09
SVVVPYDPPEV [TP53_Y220_E221D]	inactive: 0.594
SVVVHYEPPEV [TP53_Y220_P219H]	inactive: 0.874
SVVVPYKPPEV [TP53_Y220_E221K]	inactive: 0.835
SVTCTYSPAFN [TP53_Y126_L130F]	inactive: 0.87
SVTCPYSPALN [TP53_Y126_T125P]	inactive: 0.799
SVVVPYEPPGV [TP53_Y220_E224G]	inactive: 0.772
GVVVPYEPPEV [TP53_Y220_S215G]	inactive: 0.845
SVTCTGSPALN [TP53_Y126_Y126G]	inactive: 0.634
SVTCTDSPALN [TP53_Y126_Y126D]	inactive: 0.744
SVTCTYSPALD [TP53_Y126_N131D]	inactive: 0.951
SVVVPYEPPEV [TP53_Y220]	inactive: 1.06
SVVVPYESPEV [TP53_Y220_P222S]	inactive: 0.977
SVTCTYSPDLN [TP53_Y126_A129D]	inactive: 0.976
SVTCRYSPALN [TP53_Y126_T125R]	inactive: 0.552
SVTYTYSPALN [TP53_Y126_C124Y]	inactive: 0.617
SVTCTYSPAIN [TP53_Y126_L130I]	inactive: 1.19
SVVVPYEQPEV [TP53_Y220_P222Q]	inactive: 0.693
SVVVPYEPHEV [TP53_Y220_P223H]	inactive: 0.807

These binders were tested against SHP2 N-SH2 domain wild-type in the same assay as above. Conditions: peptide library: pTyr-Var.

Binder	enrichment score
FFRCHYPLTTL [TNS4_Y644_R642C]	inactive: 1.4
SVVVPYDPPEV [TP53_Y220_E221D]	inactive: 0.901
SVVVHYEPPEV [TP53_Y220_P219H]	inactive: 0.757
SVVVPYKPPEV [TP53_Y220_E221K]	inactive: 0.864
SVTCTYSPAFN [TP53_Y126_L130F]	inactive: 1.72
SVTCPYSPALN [TP53_Y126_T125P]	inactive: 1.12
SVVVPYEPPGV [TP53_Y220_E224G]	inactive: 0.78
GVVVPYEPPEV [TP53_Y220_S215G]	inactive: 0.877
SVTCTGSPALN [TP53_Y126_Y126G]	inactive: 1.02
SVTCTDSPALN [TP53_Y126_Y126D]	inactive: 1.24
SVTCTYSPALD [TP53_Y126_N131D]	inactive: 1.51
SVVVPYEPPEV [TP53_Y220]	inactive: 0.953
SVVVPYESPEV [TP53_Y220_P222S]	inactive: 0.953
SVTCTYSPDLN [TP53_Y126_A129D]	inactive: 1.73
SVTCRYSPALN [TP53_Y126_T125R]	inactive: 0.922
SVTYTYSPALN [TP53_Y126_C124Y]	inactive: 1.08
SVTCTYSPAIN [TP53_Y126_L130I]	inactive: 2.43
SVVVPYEQPEV [TP53_Y220_P222Q]	inactive: 0.806
SVVVPYEPHEV [TP53_Y220_P223H]	inactive: 0.907
